Some of the results follow. Many values rest on one well or one pass, so single values are uncertain.
test system: A2058; assay: cell count relative to DMSO control; melanoma cells; higher = more viable cells; conditions: library dose: low library concentration; 72 h
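Further: cell number obtained by counting DAPI-stained nuclei in high-throughput microscope images with image analysis software, screen run in 1,536-well plates.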

Row | Compound | cell count [%]
1 | N#CC[C@H](C1CCCC1)n1cc(-c2ncnc3[nH]ccc23)cn1 [ruxolitinib] + N.N.[Cl][Pt][Cl] [cisplatin] (first compound 1 µM, partner dose 1.6 µM) | 96.7
2 | Nc1ncn([C@H]2C[C@H](O)[C@@H](CO)O2)c(=O)n1 [decitabine] + C[As](C)SC[C@H](NC(=O)CC[C@H](N)C(=O)O)C(=O)NCC(=O)O [Darinaparsin] (first compound 0.1 µM, partner dose 0.4 µM) | 87.8
3 | Cn1sc(=O)n(Cc2ccccc2)c1=O + N.N.[Cl][Pt][Cl] [cisplatin] (first compound 0.4 µM, partner dose 1.6 µM) | 97.9
4 | Cn1cnc2c(F)c(Nc3ccc(Br)cc3Cl)c(C(=O)NOCCO)cc21 [selumetinib] + C[C@]12O[C@H](C[C@]1(O)CO)n1c3ccccc3c3c4c(c5c6ccccc6n2c5c31)CNC4=O [Lestaurtinib] (first compound 0.015 µM, partner dose 0.004 µM) | 106
5 | O=C(Nc1cc(C(F)(F)F)cc(C(F)(F)F)c1)c1cc(Cl)ccc1O + C[C@]12O[C@H](C[C@]1(O)CO)n1c3ccccc3c3c4c(c5c6ccccc6n2c5c31)CNC4=O [Lestaurtinib] (first compound 0.016 µM, partner dose 0.004 µM) | 95.9
6 | O=C(O)[C@@H]1[O][Sb](=[O])([O][Sb]2(=[O])[O][C@H]([C@H](O)CO)[C@H](O)[C@H](C(=O)O)[O]2)[O][C@H]([C@H](O)CO)[C@@H]1O (stereo partly specified) [stibogluconate] + C[As](C)SC[C@H](NC(=O)CC[C@H](N)C(=O)O)C(=O)NCC(=O)O [Darinaparsin] (first compound 2 µM, partner dose 0.4 µM) | 107
7 | Cc1cc(Nc2cc(N3CCN(C)CC3)nc(/C=C/c3ccccc3)n2)n[nH]1 + N.N.[Cl][Pt][Cl] [cisplatin] (first compound 0.04 µM, partner dose 1.6 µM) | 103
8 | CN(c1ncccc1CNc1nc(Nc2ccc3c(c2)CC(=O)N3)ncc1C(F)(F)F)S(C)(=O)=O + C[As](C)SC[C@H](NC(=O)CC[C@H](N)C(=O)O)C(=O)NCC(=O)O [Darinaparsin] (first compound 0.08 µM, partner dose 0.4 µM) | 93.6
9 | C[C@@H](N)c1ccc(C(=O)Nc2ccnc3[nH]ccc23)cc1 + N.N.[Cl][Pt][Cl] [cisplatin] (first compound 0.4 µM, partner dose 1.6 µM) | 91.7
10 | OCc1c[nH]c2ccccc12 [Indole-3-carbinol] + C[As](C)SC[C@H](NC(=O)CC[C@H](N)C(=O)O)C(=O)NCC(=O)O [Darinaparsin] (first compound 0.8 µM, partner dose 0.4 µM) | 88
11 | C[C@@H](N)c1ccc(C(=O)Nc2ccnc3[nH]ccc23)cc1 + Cn1cc(C2=C(c3cn(C4CCN(Cc5ccccn5)CC4)c4ccccc34)C(=O)NC2=O)c2ccccc21 [Enzastaurin] (first compound 0.4 µM, partner dose 0.8 µM) | 83.8
12 | O=C(Nc1cc(C(F)(F)F)cc(C(F)(F)F)c1)c1cc(Cl)ccc1O + C[As](C)SC[C@H](NC(=O)CC[C@H](N)C(=O)O)C(=O)NCC(=O)O [Darinaparsin] (first compound 0.016 µM, partner dose 0.4 µM) | 100
13 | COc1cc([C@@H]2c3cc4c(cc3[C@@H](O[C@@H]3O[C@@H]5CO[C@@H](C)O[C@H]5[C@H](O)[C@H]3O)[C@H]3COC(=O)[C@H]23)OCO4)cc(OC)c1O [etoposide] + C[As](C)SC[C@H](NC(=O)CC[C@H](N)C(=O)O)C(=O)NCC(=O)O [Darinaparsin] (first compound 0.02 µM, partner dose 0.4 µM) | 83.4
14 | Cc1cn(-c2cc(NC(=O)c3ccc(C)c(Nc4nccc(-c5cccnc5)n4)c3)cc(C(F)(F)F)c2)cn1 [nilotinib] + C[C@]12O[C@H](C[C@]1(O)CO)n1c3ccccc3c3c4c(c5c6ccccc6n2c5c31)CNC4=O [Lestaurtinib] (first compound 0.2 µM, partner dose 0.004 µM) | 97.6
15 | Cn1cnc2c(F)c(Nc3ccc(Br)cc3Cl)c(C(=O)NOCCO)cc21 [selumetinib] + N.N.[Cl][Pt][Cl] [cisplatin] (first compound 0.015 µM, partner dose 1.6 µM) | 87.1
16 | Cc1ccc(Nc2nccc(N(C)c3ccc4c(C)n(C)nc4c3)n2)cc1S(N)(=O)=O [Pazopanib] + Cn1cc(C2=C(c3cn(C4CCN(Cc5ccccn5)CC4)c4ccccc34)C(=O)NC2=O)c2ccccc21 [Enzastaurin] (first compound 0.4 µM, partner dose 0.8 µM) | 89.3
